For at least one compound, name, drawing or mass did not settle the structure. Some results were stated once for a whole list of compounds, not compound by compound.
Target: T1, human p38 kinase alpha (Homo sapiens, UniProt Q16539)
T1 construct: made in house; host or cells: E. coli DH10B
Test: p38 alpha kinase assay
Type: biochemical
Settings: in vitro inhibition of activated human p38 kinase alpha; two formats described (PHAS-I/32P-ATP, EGFRP/33P-ATP), format used not stated; values given as ranges
Protocol: The ability of compounds to inhibit human p38 kinase alpha was evaluated using two in vitro assay methods. In the first method, activated human p38 kinase alpha phosphorylates a biotinylated substrate, PHAS-I (phosphorylated heat and acid stable protein-insulin inducible), in the presence of gamma ^32P-ATP (^32P-ATP). PHAS-I was biotinylated prior to the assay and provides a means of capturing the substrate, which is phosphorylated during the assay. p38 Kinase was activated by MKK6. Compounds were tested in 10 fold serial dilutions over the range of 100 μM to 0.001 μM using 1% DMSO. Each concentration of inhibitor was tested in triplicate. All reactions were carried out in 96 well polypropylene plates. Each reaction well contained 25 mM HEPES pH 7.5, 10 mM magnesium acetate and 50µM unlabeled ATP. Activation of p38 was required to achieve sufficient signal in the assay. Biotinylated PHAS-I was used at 1-2 μg per 50 μl reaction volume, with a final concentration of 1.5 μM. Activated human p38 kinase alpha was used at 1 μg per 50 μl reaction volume representing a final concentration of 0.3 μM. Gamma ^32 P-ATP was used to follow the phosphorylation of PHAS-I. ^32 P-ATP has a specific activity of 3000 Ci/mmol and was used at 1.2 μCi per 50 μl reaction volume. The reaction proceeded either for one hour or overnight at 30° C. Following incubation, 20 μl of reaction mixture was transferred to a high capacity streptavidin coated filter plate (SAM-streptavidin-matrix, Promega) prewetted with phosphate buffered saline. The transferred reaction mix was allowed to contact the streptavidin membrane of the Promega plate for 1-2 minutes. Following capture of biotinylated PHAS-I with ^32P incorporated, each well was washed to remove unincorporated ^32P-ATP three times with 2M NaCl, three washes of 2M NaCl with 1% phosphoric, three washes of distilled water and finally a single wash of 95% ethanol. Filter plates were air-dried and 20 μl of scintillant was added. The plates were sealed and counted. A second assay format was also employed that is based on p38 kinase alpha induced phosphorylation of EGFRP (epidermal growth factor receptor peptide, a 21 mer) in the presence of ^33P-ATP. Compounds were tested in 10 fold serial dilutions over the range of 100 μM to 0.001 μM in 1% DMSO. Each concentration of inhibitor was tested in triplicate. […] Reactions were initiated by addition of 0.09 μg of activated, purified human GST-p38 kinase alpha. Activation was carried out using GST-MKK6 (5:1,p38:MKK6) for one hour at 30° C. in the presence of 50 μM ATP. Following incubation for 60 minutes at room temperature, the reaction was stopped by addition of 150 μl of AG 1×8 resin in 900 mM sodium formate buffer, pH 3.0 (1 volume resin to 2 volumes buffer). The mixture was mixed three times with pipetting and the resin was allowed to settle. A total of 50 μl of clarified solution head volume was transferred from the reaction wells to Microlite-2 plates. 150 μl of Microscint 40 was then added to each well of the Microlite plate, and the plate was sealed, mixed, and counted.

T1 sequence (Q16539 whole entry): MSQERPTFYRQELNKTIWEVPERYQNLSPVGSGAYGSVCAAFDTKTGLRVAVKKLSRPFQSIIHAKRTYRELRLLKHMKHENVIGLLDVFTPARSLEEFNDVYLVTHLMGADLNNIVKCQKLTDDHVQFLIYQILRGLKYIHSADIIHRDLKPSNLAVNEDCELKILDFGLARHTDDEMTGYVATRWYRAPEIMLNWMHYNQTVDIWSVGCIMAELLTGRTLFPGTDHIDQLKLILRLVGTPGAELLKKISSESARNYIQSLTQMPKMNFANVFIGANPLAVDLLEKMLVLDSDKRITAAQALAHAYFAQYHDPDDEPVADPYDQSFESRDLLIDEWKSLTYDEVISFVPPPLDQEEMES

Structure (SMILES) | IC50 [µM]
NN(Cc1ccccc1)c1cnn(-c2c(Cl)cccc2Cl)c(=O)c1Br [Compound 32] | 60 to 80
CN(C)CCCn1ncc(OCc2ccc(F)cc2F)c(Br)c1=O [Compound 62] | > 100
O=c1c(Br)c(NCc2ccc(F)cc2)cnn1Cc1ccccc1 [Compound 2] | 60 to 80
O=c1c(Br)c(OCc2ccc(F)cc2)cnn1Cc1ccccc1 [Compound 1] | > 100
O=c1c(Br)c(NCC2CCCO2)cnn1Cc1ccccc1 (stereo not shown) [Compound 5] | > 100
O=c1c(-c2ccccc2)c(OCCc2ccccc2)cnn1-c1c(Cl)cccc1Cl [Compound 50] | > 100
O=c1c(Br)c(NCC2CCCO2)cnn1-c1c(Cl)cccc1Cl (stereo not shown) [Compound 37] | > 100
Cc1nc(Cn2ncc(OCc3ccc(F)cc3F)c(Br)c2=O)cs1 [Compound 64] | 0.1 to 20
CN(CCc1ccccc1)c1cnn(-c2c(Cl)cccc2Cl)c(=O)c1Br [Compound 30] | 20 to 40
O=c1c(Br)c(N[C@@H](CO)c2ccccc2)cnn1-c1c(Cl)cccc1Cl [Compound 43] | > 100
O=c1c(Br)c(NC(CO)Cc2ccccc2)cnn1-c1c(Cl)cccc1Cl (stereo not shown) [Compound 42] | > 100
O=c1c(Br)c(OCc2ccc(F)cc2F)cnn1Cc1ccncc1 [Compound 60] | 0.1 to 20
O=c1c(Br)c(N(CCO)CCc2ccccc2)cnn1-c1c(Cl)cccc1Cl [Compound 31] | 40 to 60
COc1c(OCCc2ccccc2)cnn(-c2c(Cl)cccc2Cl)c1=O [Compound 51] | 60 to 80
C[C@H](Nc1cnn(-c2c(Cl)cccc2Cl)c(=O)c1Br)[C@H](O)c1ccccc1 [Compound 41] | > 100
O=c1c(Br)c(O)cnn1-c1c(Cl)cccc1Cl [Compound 46] | > 100
O=c1c(Br)c(NCc2cccc(Cl)c2)cnn1-c1c(Cl)cccc1Cl [Compound 29] | 20 to 40

Structure (SMILES) | IC50 [µM]
O=c1c(Br)c(OCCc2ccccc2)cnn1Cc1ccccc1 [Compound 8] | > 100
CN(C)CCn1ncc(OCc2ccc(F)cc2F)c(Br)c1=O [Compound 61] | > 100
CC(C)c1ccccc1Sc1cnn(Cc2ccccc2)c(=O)c1Br [Compound 4] | > 100
O=c1c(Br)c(Sc2ccc(F)cc2)cnn1-c1c(Cl)cccc1Cl [Compound 35] | > 100
C[C@@H](Nc1cnn(-c2c(Cl)cccc2Cl)c(=O)c1Br)c1ccccc1 [Compound 34] | 80 to 100
C[C@@H](Nc1cnn(-c2c(Cl)cccc2Cl)c(=O)c1Br)[C@@H](O)c1ccccc1 [Compound 40] | > 100
O=c1c(Br)c(OCc2ccc(F)cc2F)cnn1CCO [Compound 63] | 20 to 40
O=C(O)CC(CNc1cnn(-c2c(Cl)cccc2Cl)c(=O)c1Br)c1ccc(Cl)cc1 (stereo not shown) [Compound 33] | 80 to 100
O=C(O)C(Nc1cnn(Cc2ccccc2)c(=O)c1Br)c1ccccc1 (stereo not shown) [Compound 6] | > 100
O=c1c(Br)c(N2CCN(c3ccc(F)cc3)CC2)cnn1-c1c(Cl)cccc1Cl [Compound 44] | > 100
O=c1c(Br)c(N[C@@H]2C[C@H]2c2ccccc2)cnn1-c1c(Cl)cccc1Cl [Compound 38] | > 100
O=C(O)C(Nc1cnn(-c2c(Cl)cccc2Cl)c(=O)c1Br)c1ccccc1 (stereo not shown) [Compound 39] | > 100
O=c1c(Br)c(Nc2ccccc2)cnn1-c1c(Cl)cccc1Cl [Compound 36] | > 100
O=c1c(Br)c(OCCCc2ccccc2)cnn1-c1c(Cl)cccc1Cl [Compound 45] | > 100
O=c1c(Br)c(Sc2ccc(F)cc2)cnn1Cc1ccccc1 [Compound 3] | > 100
O=c1[nH]ncc(OCc2ccc(F)cc2F)c1Br [Compound 59, 4-bromo-5-[(2,4-difluorobenzyl)oxy]pyridazin-3(2H)-one] | > 100
O=c1c(Br)c(NCC(CCO)c2ccc(Cl)cc2)cnn1-c1c(Cl)cccc1Cl (stereo not shown) [Compound 47] | > 100

— patent publication US20050020594A1, “Substituted pyridazinones” (Pharmacia Corporation, priority 2003, published 2005)
